According to publication PMC12136788:
The other results are listed elsewhere or left out.

T1: UNK ZnF1-6 (called full-length) (human, UniProt Q9C0B0 30-357)
T1 sequence: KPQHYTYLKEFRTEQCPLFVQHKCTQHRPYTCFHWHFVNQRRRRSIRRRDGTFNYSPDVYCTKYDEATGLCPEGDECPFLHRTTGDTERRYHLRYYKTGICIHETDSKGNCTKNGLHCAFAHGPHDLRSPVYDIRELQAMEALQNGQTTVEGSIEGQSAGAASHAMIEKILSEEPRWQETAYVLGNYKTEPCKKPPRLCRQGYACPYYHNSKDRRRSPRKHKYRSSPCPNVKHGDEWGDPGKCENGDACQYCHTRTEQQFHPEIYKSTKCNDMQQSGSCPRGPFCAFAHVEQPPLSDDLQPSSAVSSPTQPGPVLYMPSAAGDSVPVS

B1: ENSG00000144749:stop:overlap|stop_codon|ENSG00000144749|stop_codon|NA|stop_codon (ssRNA)
RNA: GGGAGUUCUACAGUCCGACGAUCCACUGACAGGACAGCUCCCCGGGAAACAGAGGGUGCCACUGCUGUUGGCACCAAAAAGCUAGGUUUUGUCUACCUCAGUUCUUGUCAUACCAAUCUCUACGGGAAAGAGAGGUAGGAGAGCAACAGAGGAUUGAGCAUCA
B2: chr12:108783210:108783311:-|3pUTR|ENSG00000084112|msi1|FALSE|unique (ssRNA)
RNA: GGGAGUUCUACAGUCCGACGAUCUGUUUAUCCUGCUAUGCAGUUUUACAUUGUGUGUUCACAUCUAUUCCAAGGAGCCUUGCUAGAAACAACACUGGCGGUUCCUGCAGGCCAGGCAGGCAUUGGCCCAUGCUGUGUCCCAUACAACAGAGGAUUGAGCAUCA
B3: chr14:100883974:100884119:-|CDS|ENSG00000254656|unk|total|mutant (ssRNA)
RNA: GGGAGUUCUACAGUCCGACGAUCGUUCUAUAACGACCGUCUGAGAGUUGGCUAUGUCAUCAAUCACCUGUCCGGCUUGGCAUCCGAAUGGGCCAAAGCUCUACUGCAGGAAAACAGCCCCCUGAUCGGAGACUUCCCAGCCUUCAACAGAGGAUUGAGCAUCA
B4: chr7:76328962:76329048:-|3pUTR|ENSG00000170027|msi1_unk|FALSE|overlapping (ssRNA)
RNA: GGGAGUUCUACAGUCCGACGAUCACCUGAGGUCUCAUUCAUCCUUAUGGUUUAGGCCUUGCCAGUUUUCCGAAGUCUCUGAUUAGUUGACAGUAUUAACACUAAAUUGCAGUUUACAGUAUUUCUACAUUACAGCCAUAUGUACAACAGAGGAUUGAGCAUCA
B5: chr20:37404728:37404829:+|3pUTR|ENSG00000197122|msi1|FALSE|unique (ssRNA)
RNA: GGGAGUUCUACAGUCCGACGAUCGGCCUCUGCAACUGCUCAGCUCUGGUCCAGGCCCUGUGGCAGGACACACAUGGUGAGCCUAGCCCUGGGACAUCAGGAGACUGGGCUCUGGCUCUGUUCGGCCUUUGGGUGUGUGGUGGACAACAGAGGAUUGAGCAUCA
B6: chr10:68791452:68791550:+|3pUTR|ENSG00000060339|msi1_unk|FALSE|overlapping (ssRNA)
RNA: GGGAGUUCUACAGUCCGACGAUCCUAGCCUUCAAAUUAUUAAACACUCCUUGAGUGAAAUAAUUUUGCAUUGCAAAGUGUUUUAGGAUGAACUUUGUUAUAGUUUUAACUCCAAUAAAGUUCAUCAGUUUAAUUGACUGUAGUCAACAGAGGAUUGAGCAUCA
B7: chr9:128810308:128810409:+|3pUTR|ENSG00000107021|unk|total|mutant (ssRNA)
RNA: GGGAGUUCUACAGUCCGACGAUCUACAGAUUGAGCUGUAUGAAUUCAGCGGGUCUCACUCCAGAGGGUCAGAACGUUUGCUUCCGUUUUUUCAUCUGUUUUGUUCCUUGAGUCAGUGCUGUUGAUGACGAGUUGUCUUGAAUACAACAGAGGAUUGAGCAUCA
B8: chr5:150649000:150649101:+|CDS|ENSG00000171992|msi1|FALSE|bound_elsewhere (ssRNA)
RNA: GGGAGUUCUACAGUCCGACGAUCCAGGCCUUUUGGGAUCCAGGCGCCAGGGGGCACCAGCCAGAUGGAGAGGAGCCCCAUGCUAGAGAGACGACAUUUUGGGGAGAAGGCCCCGGCUCCCCAGCCCCCCAGUUUGCCAGACAGCAACAGAGGAUUGAGCAUCA
B9: chr4:186618492:186618593:-|CDS|ENSG00000083857|msi1|total|mutant (ssRNA)
RNA: GGGAGUUCUACAGUCCGACGAUCGUAAUCACUACAAAGGAGAGCCUCAUUGGCUUGGAAAAUGAAUUCUUCACUUUCUUUGUCCGAGCUGUGGAUAAUGGGUCUCCAUCAAAAGAAUCUGUUGUUCUUGUCUAUGUUAAAAUCCAACAGAGGAUUGAGCAUCA
B10: ENSG00000198589:be:win_4501|CDS|ENSG00000198589|bound_else_gene|NA|bound_elsewhere_windowed (ssRNA)
RNA: GGGAGUUCUACAGUCCGACGAUCAGAGAUCUUGACAGGCUUCUACAGGACAUGGAUAUUAAUCGGCUUAGGGCAGUUGUUUUCAGAGACAUAGAGGAUAGCAAACAAGCUCAAUUUUUAGCCUUGGCAGUAGUAUACUUUAUCCAACAGAGGAUUGAGCAUCA
B11: chr11:8612036:8617995:-|three_prime_utr|ENSG00000166436|control|control|control (ssRNA)
RNA: GGGAGUUCUACAGUCCGACGAUCCCCAUACUGUCGACCAUUCCUCCCCAUCUUGCAGCUUAUCCUCUUCAGAGUGUGGAUGGUAGAUGAGUCUUGUUGAACUGUGUAGUGCUCUUCUUUGCCAUUUGCAUCUACAGCAUUUAUCAACAGAGGAUUGAGCAUCA
B12: chr14:106537809:106538116:-|CDS|ENSG00000211964|control|control|control (ssRNA)
RNA: GGGAGUUCUACAGUCCGACGAUCUGGGUCCGCCAGGCUCCAGGGAAGGGGCUGGAGUGGGUUUCAUACAUUAGUAGUAGUGGUAGUACCAUAUACUACGCAGACUCUGUGAAGGGCCGAUUCACCAUCUCCAGAGACAACGCCCAACAGAGGAUUGAGCAUCA
B13: chr7:13894654:13894755:-|3pUTR|ENSG00000006468|msi1|total|mutant (ssRNA)
RNA: GGGAGUUCUACAGUCCGACGAUCUAUUCUCUUUCAUGCUGAAUUUACUAUGACCAUUUAUAAGCAGUGCAGUUAACUACAGACCGCAUUUCAGGACAAAACCGAUGACUCAAACCAUUUAUUGCUUAAAAAACCGCUUACGCCCAACAGAGGAUUGAGCAUCA
B14: ENSG00000198589:be:win_3451|CDS|ENSG00000198589|bound_else_gene|NA|bound_elsewhere_windowed (ssRNA)
RNA: GGGAGUUCUACAGUCCGACGAUCGAUGACAAAUUAAUAUUUCAAGAAGGAAAACCUGUUACUGAAAAGCAAACUGAUACUGAAACUCAAGAUUCUAAAGAUUCUGGAAUUCAGACUAUGACAGCAUCAGGGUCUUCAGCUAUGCAACAGAGGAUUGAGCAUCA
B15: chr6:75256125:75256201:-|CDS_3pUTR|ENSG00000112697|msi1_unk|total|mutant (ssRNA)
RNA: GGGAGUUCUACAGUCCGACGAUCUUUGGGGAUUGCUUACAUCGCUGUUGGAUCCAUCUCCUUCCUUCUGGGAGUUGUACUGCCCGUAAUUAAUCAUAAAUACCGAAACAGCCGUAAUACAGCUGACAUUACCAUUUAAUUUUACAACAGAGGAUUGAGCAUCA
B16: chrX:101625945:101626046:+|CDS|ENSG00000102401|unk|FALSE|unique (ssRNA)
RNA: GGGAGUUCUACAGUCCGACGAUCAGGUUCACUUUUUUUCUUUUUAAAAGAAUUUCAAGUGUGUGCUGAUAAGGUUCUGGGAAUAGAAAGUCACCAUGAUUUUUUGGUGAAAGUAAAAGUUGGAAAAUUCAUGGCCAAACUUGCCAACAGAGGAUUGAGCAUCA
B17: chr12:76028832:76028933:-|3pUTR|ENSG00000139289|msi1|FALSE|unique (ssRNA)
RNA: GGGAGUUCUACAGUCCGACGAUCAAAGGAAAAGACUGGAUAAACACAGGAUUUUCAGUAAGAAAACAACCCCAGUCUUGUCUUAGAAGCCACUUGUUGAGGAGUCUGUUGGGGGAAAAAAGAGGAUAUGCUUUUAAAGGUAGACAACAGAGGAUUGAGCAUCA
B18: ENSG00000070961:be:win_3301|CDS|ENSG00000070961|bound_else_gene|NA|bound_elsewhere_windowed (ssRNA)
RNA: GGGAGUUCUACAGUCCGACGAUCCGGCGUGGCCAAAUCUUGUGGUUUAGAGGUCUGAACAGAAUCCAAACACAGAUUCGAGUGGUGAAUGCAUUUCGUAGUUCUUUAUAUGAAGGGUUAGAAAAACCGGAAUCAAGAAGUUCGCAACAGAGGAUUGAGCAUCA
B19: chr6:41099391:41099486:+|3pUTR|ENSG00000001167|msi1_unk|total|mutant (ssRNA)
RNA: GGGAGUUCUACAGUCCGACGAUCAGUGCUUAAGCUGCCAACAGUCCGAAGAUGCUAUUUAUUUGUGUCUGUAAGUUUGUACACCGUAAUGCCAGCCUUGUUGCUGAAUUUUUUAUUUGGGGGGAGAUGACUUUGAAUUUUGUUCAACAGAGGAUUGAGCAUCA
B20: chr19:19111484:19111585:+|3pUTR|ENSG00000181035|msi1|total|mutant (ssRNA)
RNA: GGGAGUUCUACAGUCCGACGAUCAGCCUCAUGUCUAUCCCCGACCCUGCAAGCAGCUGGGUCCCCAAGAGUGCAUCUCCCCCCCGAGUUGCCUGCCCAUGCCCACCUGCUUUGUAACCUUCCCAGGAGAUUCAUGCUUGCUCUCAACAGAGGAUUGAGCAUCA
B21: chr15:82681419:82681580:-|CDS|ENSG00000103723|control|control|control (ssRNA)
RNA: GGGAGUUCUACAGUCCGACGAUCCAGUGCCCUCCGUGUCCUCUCUAGCAUCCGUGUGCCCAUCAUAGUGCCCAUCAUGAUGCUAGCUAUCAAGGAAGCCGCCUCGGACAUGUCACCCUAUGUGCGGAAAACAGCUGCCCACGCCAACAGAGGAUUGAGCAUCA
B22: chr7:20410991:20411126:+|3pUTR|ENSG00000105855|msi1|FALSE|unique (ssRNA)
RNA: GGGAGUUCUACAGUCCGACGAUCAAAUUCUGCCUCAAGCAAAGUACCACAUUUUGAAUGUUUUCUUAGAUUUUGAUUGCAAGUAGAUAUCAGCAUUUUUUAAAUGAAAAGCUAUAUUAUCUUCUCCCUUCAAGGCAGCCUAAGCAACAGAGGAUUGAGCAUCA

target: T1, UNK ZnF1-6 (called full-length); assay: nsRBNS (natural sequence RNA bind-n-seq); RBNS binding buffer (assumed for nsRBNS): 25 mM Tris pH 7.5, 150 mM KCl, 3 mM MgCl2, 0.01% Triton X-100, 500 ug/ml BSA, 20 U/ml SUPERase-In, 4 C; UNK is unkempt and MSI1 is Musashi-1; names of the RNAs are library labels; protein concentration not given here; high values mean tight binding

Which binding signal does the source give for B1 here?
Its binding signal is 0.613 enrichment R.

With B2 as the binder, how does the binding signal read?
Its binding signal is 0.668 enrichment R.

How did the binding signal turn out when B3 was run?
The binding signal was 0.76 enrichment R.

How did the binding signal turn out when B4 was run?
The binding signal was 0.558 enrichment R.

With B5 as the binder, how does the binding signal read?
Its binding signal is 0.605 enrichment R.

For B6, which binding signal is on record?
Its binding signal is 0.607 enrichment R.

For B7, which binding signal is on record?
Its binding signal is 0.444 enrichment R.

B8 was tested. Which binding signal did it give?
The binding signal was 1 enrichment R.

Which binding signal does the source give for B9 here?
Its binding signal is 0.389 enrichment R.

With B10 as the binder, how does the binding signal read?
The binding signal was 1.57 enrichment R.

Which binding signal does the source give for B11 here?
The binding signal was 0.477 enrichment R.

B12 was tested. Which binding signal did it give?
Its binding signal is 0.714 enrichment R.

Which binding signal does the source give for B13 here?
Its binding signal is 0.607 enrichment R.

Which binding signal does the source give for B14 here?
Its binding signal is 0.481 enrichment R.

How did the binding signal turn out when B15 was run?
The binding signal was 0.4 enrichment R.

B16 was tested. Which binding signal did it give?
Its binding signal is 0.389 enrichment R.

For B17, which binding signal is on record?
Its binding signal is 0.753 enrichment R.

Which binding signal does the source give for B18 here?
Its binding signal is 0.535 enrichment R.

B19 was tested. Which binding signal did it give?
The binding signal was 0.584 enrichment R.

How did the binding signal turn out when B20 was run?
The binding signal was 0.82 enrichment R.

Which binding signal does the source give for B21 here?
Its binding signal is 0.839 enrichment R.

For B22, which binding signal is on record?
The binding signal was 0.416 enrichment R.
